Experimental data published in PubChem BioAssay AID2546 (National Center for Advancing Translational Sciences (NCATS), 2010).
About 11,000 (3.5%) of roughly 310,000 compounds were called active. Inconclusive means that the source gave no clear call. Such entries were picked first, then a sample of the others. The call rests on the fitted dose curve; in most records, active means well fitted inhibition curve with a large enough effect; inconclusive means small, poorly fitted or top-dose-only effect, or effect the other way; inactive means flat fitted curve, though single readings scatter. No potency is given beside an inconclusive call; the fits are too rough.

Experiment: VP16 counterscreen qHTS for inhibitors of ROR gamma transcriptional activity;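 further: Gal4-VP16 expression switched on by copper sulfate through the metallothionein promoter; nearly all actives have a fitted effect of over 50% in size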
Conditions: Drosophila S2 Gal4-VP16 UAS-luciferase, luminescence, 20 h; series mostly up to 53.6 µM
Potency means the concentration at half of the fitted maximal effect; tags describe the fitted curve by direction and shape.

Row | SMILES | Potency
1 | CCOCCCn1c(=S)[nH]c2cc(C(=O)N3CCN(c4ccccc4)CC3)ccc2c1=O | inconclusive [inhibitor, single point]
2 | N#CCCN(Cc1ccccc1)C(=O)c1cccs1 | inactive
3 | Cc1nc(CSc2ccc(Cl)cc2)cs1 | inconclusive [activator, partial curve]
4 | Fc1ccc(-c2nnn(Cc3ccccc3Cl)n2)cc1 | inconclusive [activator, single point]
5 | CC(C)c1cc(C(=O)OCC(=O)N2CCN(C(=O)c3ccco3)CC2)c(O)c(C(C)C)c1 | inconclusive [inhibitor, single point]
6 | Cc1cc(C)c(C(=O)c2ccc(C(=O)N(C(C)C)C(C)C)cc2)c(C)c1 | inactive
7 | Cc1cccc(-n2ncc3c2CCCC3NC(=O)C2=CC(=O)CC(C)(C)O2)c1C (stereo unspecified) | inconclusive [inhibitor, partial curve, poor fit]
8 | CC(C)CCN1C(=O)c2ccc(C(=O)Nc3cccc(S(N)(=O)=O)c3)cc2C1=O | inconclusive [inhibitor, single point]
9 | COc1ccc(-c2cn(CC3CCCCC3)nn2)cc1 | inconclusive [inhibitor, partial curve]
10 | O=C(Nc1ccccn1)c1ccc2c(c1)OCO2 | inconclusive [inhibitor, single point]
11 | CCCCCCn1c(N2CCCC2)nc2c1c(=O)n(C)c(=O)n2C | inactive
12 | COc1cc([N+](=O)[O-])cc(/C=N\NC(=O)C2COc3ccccc3O2)c1O (stereo unspecified) | active: 3.16 µM
13 | COc1ccc(NC(=S)NC(NC(=O)c2ccc(Cl)cc2Cl)C(Cl)(Cl)Cl)c([N+](=O)[O-])c1 (stereo unspecified) | inactive
14 | C/C(=N\NC(=O)c1ccc(Cl)c(Cl)c1)c1ccc(Br)s1 | active: 0.631 µM
15 | COc1cc(/C=C2/C(=O)NN(c3ccc(Cl)cc3)C2=O)ccc1OC(=O)c1ccco1 | inconclusive [inhibitor, single point]
16 | CC(C)(C)c1csc(N/N=C/c2ccc(O)cc2)n1 | active: 1 µM
17 | O=c1c2ccccc2c(C=Nc2cccc(O)c2)c(O)n1-c1ccc2c(c1)OCO2 | inconclusive [inhibitor, single point]
18 | CCN1CCN(Cc2c(O)ccc3c2O/C(=C\c2ccc(C)cc2)C3=O)CC1 | inconclusive [activator, single point]
19 | Cc1ccc(Nc2c(-c3ccccn3)nc3cc(C)ccn23)cc1 | inconclusive [inhibitor, single point]
20 | Oc1cccc(C=Nc2cccc3ccccc23)c1O | active: 12.6 µM
21 | CCCCNS(=O)(=O)c1ccc(NC(=O)C2c3ccccc3Oc3ccccc32)cc1 | inconclusive [inhibitor, single point]
22 | O=c1c2c(nc3c(-c4ccccc4)c[nH]n13)CCCC2 | inconclusive [inhibitor, single point]
23 | CC(C)(C)N(Cc1ccccc1)C(=O)CN1C(=O)c2ccccc2C1=O | inactive

Row | SMILES | Potency
24 | CCn1c(=O)c(C(=O)NCc2ccc(OC)cc2)c(O)c2ccccc21 | inconclusive [inhibitor, single point]
25 | CCOC(=O)c1ccc(NS(=O)(=O)N2CCCCCC2)cc1 | inconclusive [inhibitor, single point]
26 | FC(F)(F)c1ccc(NC(=S)NCc2ccccc2)cc1 | inconclusive [inhibitor, single point]
27 | C=CCNC(=S)NCc1ccccc1 | inactive
28 | CCOC(=O)C1(O)CC(C)=NN1C(=O)c1cccc(Cl)c1 (stereo unspecified) | inconclusive [inhibitor, single point]
29 | CCOC(=O)CNc1nc(C(C)(C)C)nc2c1nnn2Cc1ccccc1 | inconclusive [inhibitor, single point]
30 | CC(=O)c1ccc(N2CCN(C(=O)c3nn(Cc4ccccc4)c(=O)c4ccccc34)CC2)cc1 | inactive
31 | C#CCn1c(=NC(=O)c2ccc(Br)s2)sc2cccc(OC)c21 | inconclusive [inhibitor, single point]
32 | Cc1cc(C)c2nc3nc(C)c(C)cc3c(N)c2c1 | inconclusive [inhibitor, partial curve]
33 | O=C(CCCN1C(=O)/C(=C/c2cccs2)SC1=S)Nc1ccccn1 | inconclusive [inhibitor, full curve]
34 | COc1ccc2c(c1)C(=O)N(Cc1ccccc1)C(=O)C2(C)C | inactive
35 | O=C(Nc1nc2ccc(F)cc2s1)C1=NN(c2ccccc2)C(=O)CC1 | inconclusive [activator, single point]
36 | COc1cc(C(=O)Nc2cccc(S(=O)(=O)N3CCCC3)c2)cc(OC)c1C | inactive
37 | CC(C)(C)NC(=O)NC(=O)COc1ccccc1C#N | inconclusive [inhibitor, single point]
38 | O=C(/C=C/c1ccccc1)NC(NC(=S)Nc1cccc2cccnc12)C(Cl)(Cl)Cl (stereo unspecified) | inactive
39 | N[C@H](CO)Cc1cnc[nH]1 | inconclusive [inhibitor, single point]
40 | COc1ccc(N2CCC(CNC(=S)Nc3c(C)cc(C)cc3C)C2)cc1 (stereo unspecified) | active: 7.08 µM
41 | COc1cccc(/C=N/n2c(COc3ccccc3)n[nH]c2=S)c1O | inconclusive [inhibitor, single point]
42 | C/C(=N\O)C(=O)NCCN(C)C | inconclusive [activator, single point]
43 | CC(=O)Nc1ccc(OCC(O)CN2CCN(c3ccc(C)c(Cl)c3)CC2)cc1 (stereo unspecified) | inconclusive [inhibitor, single point]
44 | CC(C)c1ccc(NC(=S)NC2CCCCCC2)cc1 | active: 15.8 µM
45 | O=C1OC(Cc2ccccn2)C(O)=C1C1=NCCCCN1 (stereo unspecified) | inconclusive [inhibitor, partial curve]
46 | O=[N+]([O-])c1ccc(O)c(/C=N/NC(=S)Nc2ccc(Cl)cc2Cl)c1 | active: 2.51 µM
